# Laboratory results: publication PMC4336329 (PLoS ONE, 2015)
# The campaign covered roughly 310,000 compounds. About 2,200 (0.71%) showed an effect of 50% or more. The effect is printed as a negative number. Some of the results follow.
# Target: human ether-à-go-go-related gene (hERG) potassium channel (human, UniProt Q12809)
# Assay: primary screen, population patch clamp on CHO cells stably expressing hERG
# Sequence of human ether-à-go-go-related gene (hERG) potassium channel (Q12809 whole entry, looked up): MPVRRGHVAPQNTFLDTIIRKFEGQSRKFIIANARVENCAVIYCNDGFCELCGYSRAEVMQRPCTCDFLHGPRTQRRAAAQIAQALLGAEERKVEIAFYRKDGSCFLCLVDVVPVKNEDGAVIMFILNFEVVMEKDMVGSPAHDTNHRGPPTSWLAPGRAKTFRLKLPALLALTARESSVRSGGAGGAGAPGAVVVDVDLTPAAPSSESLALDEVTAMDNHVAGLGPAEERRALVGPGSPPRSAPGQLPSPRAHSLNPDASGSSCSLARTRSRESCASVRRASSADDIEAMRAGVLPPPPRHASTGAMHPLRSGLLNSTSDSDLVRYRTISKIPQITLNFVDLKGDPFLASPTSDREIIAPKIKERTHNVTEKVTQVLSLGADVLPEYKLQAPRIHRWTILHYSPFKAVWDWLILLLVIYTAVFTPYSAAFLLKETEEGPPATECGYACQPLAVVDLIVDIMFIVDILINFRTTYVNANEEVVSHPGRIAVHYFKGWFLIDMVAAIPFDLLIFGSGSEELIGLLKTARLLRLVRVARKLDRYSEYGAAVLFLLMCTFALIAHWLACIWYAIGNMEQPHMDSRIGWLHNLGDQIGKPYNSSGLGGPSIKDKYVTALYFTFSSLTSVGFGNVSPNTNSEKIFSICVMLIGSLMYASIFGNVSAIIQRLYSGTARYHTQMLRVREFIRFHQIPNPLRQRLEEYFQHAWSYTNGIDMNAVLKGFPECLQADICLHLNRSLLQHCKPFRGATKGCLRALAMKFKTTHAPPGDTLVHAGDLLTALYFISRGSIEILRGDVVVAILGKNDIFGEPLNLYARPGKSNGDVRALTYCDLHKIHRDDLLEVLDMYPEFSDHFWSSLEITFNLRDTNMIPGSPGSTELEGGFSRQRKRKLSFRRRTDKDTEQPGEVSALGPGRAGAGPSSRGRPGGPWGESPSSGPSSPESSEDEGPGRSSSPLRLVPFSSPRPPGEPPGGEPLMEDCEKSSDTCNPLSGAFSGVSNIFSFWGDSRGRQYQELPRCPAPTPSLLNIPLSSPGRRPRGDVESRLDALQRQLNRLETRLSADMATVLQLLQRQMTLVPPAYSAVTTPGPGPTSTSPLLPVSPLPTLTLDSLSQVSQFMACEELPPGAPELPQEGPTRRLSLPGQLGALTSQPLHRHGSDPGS
row,SMILES,"hERG current change (%, negative = inhibition) at 1uM"
1,CC(C)C[C@@H](CC#N)N1CCN(CCc2ccccc2)CCC1=O,12.1%
2,C/C(=N\N=C(/N)SC1CC(=O)N(c2cccc(Cl)c2)C1=O)c1cccs1 (stereo not drawn),15.1%
3,CC(=O)N1N=C(c2cccc([N+](=O)[O-])c2)OC1c1ccc(Br)cc1 (stereo not drawn),13.9%
4,Cc1cccc(C)c1OCCSc1nc2ccccc2n1CC(=O)O,11.1%
5,Cc1cc(C)n(S(=O)(=O)c2cccc([N+](=O)[O-])c2)n1,6.71%
6,COc1ccccc1NC(=O)COC(=O)Cc1cccs1,11.4%
7,CSc1ccc(CN2CCC(N3CC(C)OC(C)C3)CC2)cc1.O=C(O)C(=O)O (stereo not drawn),6.46%
8,Brc1ccc(-c2noc(CCc3ccccc3)n2)cc1,2.19%
9,CCN(CC)CC.COc1ccccc1-n1c(=S)[nH]c2c(sc(=S)n2-c2ccc(C)cc2C)c1=O,11.7%
10,COc1ccccc1NC(=O)c1c(Nc2ccccc2F)sc(C(=O)Nc2cccc(Cl)c2)c1N,2.19%
11,COc1cc(NC(=O)c2ccc(OC)c([N+](=O)[O-])c2)ccc1NC(=O)c1cccs1,-6.07%
12,Nc1cc(N)nc(SCc2ccccc2)n1,-2.95%
13,COC(=O)c1ccccc1NC(=O)Cn1cnc([N+](=O)[O-])c1,10.3%
14,CCOC(=O)c1cnn(CC2CCCCC2)c1N,5.7%
15,O=c1c2ccccc2ncn1CCOCCOc1ccc([N+](=O)[O-])cc1,-19.8%
16,CCCn1c(SCC(=O)c2c(C)[nH]c(C)c2C(=O)OCC)nc2ccccc21,2.93%
17,CN(C)c1ccc(CNC(=O)C2CCN(S(=O)(=O)c3ccc4c(c3)CCC(=O)N4)CC2)cc1,10.7%
18,CC1CCCCN1C(=S)NC(=O)c1ccco1 (stereo not drawn),5.31%
19,Cc1ccc(S(=O)(=O)NNC(=O)c2ccc(F)cc2)cc1,10.8%
20,COc1cc(/C=N/Nc2nc(=O)[nH]nc2C)cc([N+](=O)[O-])c1O,8.92%
21,O=C(COC(=O)c1cc(S(=O)(=O)N2CCCC2)ccc1O)NCCc1ccccc1,4.91%
22,O=C(O)CSc1nnc(COc2ccccc2)n1-c1ccccc1,-2.34%
23,S=C(NCc1ccc(Cl)cc1Cl)Nc1ccccc1,6.02%
24,COc1ccc(S(=O)(=O)N2CCCCC2)cc1NC(=O)CNc1ccccc1N1CCCC1=O,3.71%
